In paper PMC4336329 (PLoS ONE, 2015):
The whole screen tested about 310,000 compounds, of which about 14,000 (4.5%) showed an effect of 50% or more. Effects have a minus sign here. This is one part of the list.

Molecular target: human ether-à-go-go-related gene (hERG) potassium channel (human, UniProt Q12809)
Test: primary screen, population patch clamp on CHO cells stably expressing hERG
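Further: peak tail current of the secondary pulse compared with the same well before compound.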

human ether-à-go-go-related gene (hERG) potassium channel, sequence (Q12809 whole entry, looked up): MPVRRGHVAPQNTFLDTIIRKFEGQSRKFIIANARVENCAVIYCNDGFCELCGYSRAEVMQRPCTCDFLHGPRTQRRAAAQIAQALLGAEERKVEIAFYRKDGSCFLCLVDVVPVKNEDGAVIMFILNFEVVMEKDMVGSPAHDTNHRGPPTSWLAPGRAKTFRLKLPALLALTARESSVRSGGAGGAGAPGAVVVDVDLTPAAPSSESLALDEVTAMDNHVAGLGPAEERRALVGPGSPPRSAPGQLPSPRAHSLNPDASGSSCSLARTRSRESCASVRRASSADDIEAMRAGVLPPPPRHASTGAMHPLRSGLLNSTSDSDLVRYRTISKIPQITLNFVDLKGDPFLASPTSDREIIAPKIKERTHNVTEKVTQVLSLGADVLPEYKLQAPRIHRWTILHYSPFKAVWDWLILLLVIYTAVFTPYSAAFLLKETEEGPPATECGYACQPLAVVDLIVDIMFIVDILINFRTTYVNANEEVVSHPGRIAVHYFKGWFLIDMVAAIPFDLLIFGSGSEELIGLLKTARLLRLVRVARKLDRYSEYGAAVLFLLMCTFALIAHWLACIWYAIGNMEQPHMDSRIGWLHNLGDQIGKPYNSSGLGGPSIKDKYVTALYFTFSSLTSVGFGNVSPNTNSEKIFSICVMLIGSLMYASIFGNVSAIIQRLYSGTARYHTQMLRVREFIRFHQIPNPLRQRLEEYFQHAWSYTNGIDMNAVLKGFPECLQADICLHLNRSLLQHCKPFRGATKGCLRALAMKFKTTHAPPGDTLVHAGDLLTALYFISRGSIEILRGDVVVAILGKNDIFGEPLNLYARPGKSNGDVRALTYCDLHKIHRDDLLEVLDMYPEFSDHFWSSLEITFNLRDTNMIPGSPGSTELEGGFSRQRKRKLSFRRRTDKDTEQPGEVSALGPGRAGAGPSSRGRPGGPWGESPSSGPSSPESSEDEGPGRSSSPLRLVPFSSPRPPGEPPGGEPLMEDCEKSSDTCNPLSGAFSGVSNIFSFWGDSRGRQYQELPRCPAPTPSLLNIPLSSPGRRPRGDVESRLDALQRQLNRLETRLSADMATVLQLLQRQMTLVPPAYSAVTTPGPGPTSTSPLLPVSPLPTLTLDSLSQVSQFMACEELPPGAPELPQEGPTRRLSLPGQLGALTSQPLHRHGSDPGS

Going from O=C(CN1CCN(S(=O)(=O)c2ccc(F)cc2)CC1)NCc1cccs1 to CN1CCN(S(=O)(=O)c2ccccc2)CC1, the “hERG current change (%, negative = inhibition) at 10uM” value rises from -32.1% to 15.6%.

First: CCOC(=O)C1CCCN(Cc2ccccc2Cl)C1 (stereo not shown)
Second: COc1ccc(/C=C/CN2CCCC(C(=O)c3cc(F)ccc3F)C2)cc1 (stereo not shown)
The “hERG current change (%, negative = inhibition) at 10uM” value of the first is higher: -3.88% for the first, -76.4% for the second.

Compared with CC(C)(C)c1cnnn1-c1ccc(NC(=O)c2ccc(Br)o2)cc1, CCOc1ccc(NC(=S)NNC(=O)c2cc(Br)ccc2Cl)cc1 is lower in “hERG current change (%, negative = inhibition) at 10uM” value: 3.78% for the first, -7.06% for the second.

Going from O=C1c2ccccc2C(Nc2ccc3c(c2)OCO3)N1Cc1ccco1 (stereo not shown) to COc1ccc2c(c1)C(C1C(=O)CCCC1=O)c1ccccc1O2 (stereo not shown), the “hERG current change (%, negative = inhibition) at 10uM” value rises from -23.5% to -1.12%.

Going from COc1ccc(C(=O)NCC(C)(C)N2CCOCC2)cc1S(=O)(=O)N1CCCC1 to O=S(=O)(c1ccccc1)N1CCN(S(=O)(=O)N2CCCCC2)CC1, the “hERG current change (%, negative = inhibition) at 10uM” value rises from -8.82% to -4.6%.

Compared with COc1cc(CNc2nc(C)c([N+](=O)[O-])c(C)c2C#N)cc(OC)c1OC, COc1ccc(CCNC(=O)COc2cc(C)cc3oc(=O)cc(C)c23)cc1 is lower in “hERG current change (%, negative = inhibition) at 10uM” value: 12.8% for the first, 8.56% for the second.

Going from CC(=O)NC(CC(=O)OC(C)C(=O)Nc1ncc(Cl)cc1Cl)c1ccccc1 (stereo not shown) to CCc1ccc(C(=O)C(C)OC(=O)Cc2n[nH]c(=O)c3ccccc23)cc1 (stereo not shown), the “hERG current change (%, negative = inhibition) at 10uM” value falls from -7.77% to -24%.

Going from O=C(NCc1cccnc1)c1cc(Cl)ccc1[N+](=O)[O-] to O=C(OCc1ccc(Cl)cc1Cl)c1cccnc1Cl, the “hERG current change (%, negative = inhibition) at 10uM” value falls from 14.1% to -6.71%.

First: COc1ccc(NC(=O)CN2C(=O)NC(C)(C3CC3)C2=O)c(OC)c1 (stereo not shown)
Second: CCc1c(C#N)c(SCCC(=O)Nc2ccc(OC)cc2)nc2c1C(=O)CC(C)(C)C2
The “hERG current change (%, negative = inhibition) at 10uM” value of the first is lower: -17.9% for the first, -1.28% for the second.

First: Cc1ccc(OCCNC(=O)C2CC(=O)N(c3ccc(C)cc3)C2)cc1 (stereo not shown)
Second: COc1ccc(CCNC(=O)c2ccc(Cl)cc2)cc1
The “hERG current change (%, negative = inhibition) at 10uM” value of the first is lower: -4.5% for the first, 14.7% for the second.

Going from COc1ccccc1Nc1nc2ccccc2n2cnnc12 to Cn1cc(SCC(=O)Nc2nc3ccccc3s2)c2ccccc21, the “hERG current change (%, negative = inhibition) at 10uM” value falls from 6.29% to -5.6%.

Compared with Cc1ccc(Nc2cc(C)nc3ccc(C)cc23)cc1, COc1cccc2cc(C(=O)Nc3ccccc3C)/c(=N/O)oc12 is higher in “hERG current change (%, negative = inhibition) at 10uM” value: -37.9% for the first, 8.46% for the second.

Compared with Cc1cc(N2C(=O)C3CCCN3C2c2cccc(Cl)c2)no1 (stereo not shown), Cc1cc(C(=O)CSc2nc3ccccc3c(=O)[nH]2)c(C)n1CC1CCCO1 (stereo not shown) is lower in “hERG current change (%, negative = inhibition) at 10uM” value: 7.08% for the first, -0.542% for the second.

First: Cc1onc(-c2c(F)cccc2Cl)c1C(=O)NCc1ccc(F)cc1
Second: COC(=O)c1ccc(NC(=O)CCC(=O)c2ccc(F)cc2)cc1
The “hERG current change (%, negative = inhibition) at 10uM” value of the first is lower: -4.75% for the first, 25.8% for the second.

First: CC(=O)c1ccc(OC(C)C)c(CSC(=N)N)c1.Cl
Second: Cc1ccc(-c2nn(CCC#N)cc2C(=O)O)cc1C
The “hERG current change (%, negative = inhibition) at 10uM” value of the first is lower: -8.72% for the first, 11.3% for the second.

First: CCN(c1ccccc1)S(=O)(=O)c1ccc(C(=O)Nc2ccccn2)cc1
Second: CCC(NC(=O)c1ccccc1NC(=O)c1ccco1)C(=O)NNC(=O)c1ccc(OC)cc1 (stereo not shown)
The “hERG current change (%, negative = inhibition) at 10uM” value of the first is lower: -8.37% for the first, 10.3% for the second.

First: COc1ccccc1C(=O)NCCC(=O)NC1CCCCC1C (stereo not shown)
Second: CC(C)(C)NCC(O)COc1ccccc1C1CCCC1.O=S(=O)(O)O (stereo not shown)
The “hERG current change (%, negative = inhibition) at 10uM” value of the first is higher: -3.32% for the first, -28.5% for the second.

Compared with CCOc1ccc(Cc2nc(C)c(CC(=O)N3CCCCC3)c(=O)[nH]2)cc1, CC(=O)N1CCN(CCN=Cc2c(O)n(-c3ccc(F)cc3)c(=S)[nH]c2=O)CC1 is higher in “hERG current change (%, negative = inhibition) at 10uM” value: -10.9% for the first, 22.1% for the second.

Going from O=c1[nH]c(C(F)(F)F)nc2c1nnn2Cc1ccccc1F to c1ccc2c(c1)[nH]c1nc3nncn3nc12, the “hERG current change (%, negative = inhibition) at 10uM” value falls from 15.3% to 8.31%.

Going from CC1(C)CC(=O)C(CC(=O)NC(=O)NCc2ccccc2)=C(O)C1 to C=CCNC(=O)COC(=O)c1cccnc1Nc1ccccc1F, the “hERG current change (%, negative = inhibition) at 10uM” value rises from -5.91% to 1.79%.

First: COC(=O)c1cc(NC(=O)c2cc(C)oc2C)cc(C(=O)OC)c1
Second: Cc1cc(C)c(NC(=O)C2CCN(C(=O)c3ccco3)CC2)c(C)c1
The “hERG current change (%, negative = inhibition) at 10uM” value of the first is lower: -4.3% for the first, 19.9% for the second.

First: Fc1cccc(CN2CCN(Cc3nc(CCc4ccccc4)no3)CC2)c1
Second: O=C(OCc1nnc(-c2ccccc2)o1)c1ccc(Cl)cc1
The “hERG current change (%, negative = inhibition) at 10uM” value of the first is lower: -4.22% for the first, 1.7% for the second.

Going from CC(C)c1cc(C(=O)N/N=C/C=C/c2ccccc2)n[nH]1 to N#C/C(=C/c1cccc([N+](=O)[O-])c1)C(=O)Nc1ccccc1O, the “hERG current change (%, negative = inhibition) at 10uM” value rises from 10.5% to 14.6%.

Going from CC(C#N)N1CCN(S(=O)(=O)c2ccc3c(c2)CCC3)CC1 (stereo not shown) to COc1ccc(/C=C(\C#N)C(=O)NCC(c2ccc(F)cc2)N2CCOCC2)cc1 (stereo not shown), the “hERG current change (%, negative = inhibition) at 10uM” value falls from 17.5% to -10.2%.

First: COc1ccccc1C1C2C(=O)N(c3ccccc3)C(=O)C2ON1c1ccccc1 (stereo not shown)
Second: Cc1ccc(C(=O)N2CCN(c3ccc(NC(=O)c4ccc5c(c4)OCCO5)cc3)CC2)cc1
The “hERG current change (%, negative = inhibition) at 10uM” value of the first is higher: 2.16% for the first, -19% for the second.

Going from O=C1CC(c2cccnc2)=NN1c1ccc(Cl)cc1Cl to Fc1ccc(Oc2ccnc(Cl)n2)c(Cl)c1, the “hERG current change (%, negative = inhibition) at 10uM” value falls from 12.1% to 9.03%.

First: CCc1cc(C(=O)N2CCCC(Nc3ccc(F)c(F)c3)C2)n(C)n1 (stereo not shown)
Second: CCOc1cc(/C=N/NC(=O)CSc2nncn2C)ccc1OC(=O)c1ccc(Cl)cc1
The “hERG current change (%, negative = inhibition) at 10uM” value of the first is lower: -5.67% for the first, -1.9% for the second.

First: CCOC(=O)Cc1csc(N/N=C/c2ccc(C(F)(F)F)cc2)n1
Second: N#CCCn1cc(/C=C(\C#N)c2nc3ccccc3s2)c(-c2ccc(F)cc2)n1
The “hERG current change (%, negative = inhibition) at 10uM” value of the first is lower: 9.58% for the first, 14% for the second.

First: O=C(NNC(=S)NCCCN1CCOCC1)c1ccncc1
Second: O=C(NCC(c1cccnc1)N1CCOCC1)NC1CCCCC1 (stereo not shown)
The “hERG current change (%, negative = inhibition) at 10uM” value of the first is higher: 35.2% for the first, 19.7% for the second.
